Data reported in the supplement of paper PMC8728848.
This is one part of the list.

What was measured:
Test in all cases: glycan array binding signal (z-score within array); higher = stronger binding
Settings in all cases: glycan notation: IUPAC condensed, linker removed
[1] = molecular target: Gal(a1-4)Gal(b1-4)GlcNAc(b1-3)Gal(b1-4)Glc
In short: (§1)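 Glycan array data were curated from 3228 arrays in the Consortium for Functional Glycomics database and kept only where the protein sequence was available. Glycan names were converted to IUPAC-condensed notation, and columns mapping to the same glycan were averaged. The binding signal is a within-array Z-score, averaged across arrays of the same protein sequence at different concentrations or buffers and across linkers. Negative Z-scores can be read as non-binding.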

Gal(a1-4)GlcNAc = molecular target: Gal(a1-4)GlcNAc
In short: as §1

Gal(a1-6)Glc = molecular target: Gal(a1-6)Glc
In short: as §1

Gal(b1-2)Gal = molecular target: Gal(b1-2)Gal
In short: as §1

Gal(b1-3)Gal = molecular target: Gal(b1-3)Gal
In short: as §1

Gal(b1-3)Gal(b1-4)GlcNAc = molecular target: Gal(b1-3)Gal(b1-4)GlcNAc
In short: as §1

Gal(b1-3)GalNAc = molecular target: Gal(b1-3)GalNAc
In short: as §1

[2] = molecular target: Gal(b1-3)GalNAc(a1-3)[Fuc(a1-2)]Gal(b1-4)Glc
In short: as §1

[3] = molecular target: Gal(b1-3)GalNAc(a1-3)[Fuc(a1-2)]Gal(b1-4)GlcNAc
In short: as §1

Gal(b1-3)GalNAc(b1-3)Gal = molecular target: Gal(b1-3)GalNAc(b1-3)Gal
In short: as §1

[4] = molecular target: Gal(b1-3)GalNAc(b1-3)Gal(a1-4)Gal(b1-4)Glc
In short: as §1

[5] = molecular target: Gal(b1-3)GalNAc(b1-4)Gal(b1-4)Glc
In short: as §1

[6] = molecular target: Gal(b1-3)GalNAc(b1-4)[Neu5Ac(a2-3)]Gal(b1-4)Glc
In short: as §1

Gal(b1-3)GlcNAc = molecular target: Gal(b1-3)GlcNAc
In short: as §1

[7] = molecular target: Gal(b1-3)GlcNAc(a1-3)Gal(b1-4)GlcNAc
In short: as §1

[8] = molecular target: Gal(b1-3)GlcNAc(a1-6)Gal(b1-4)GlcNAc
In short: as §1

Gal(b1-3)GlcNAc(b1-2)Man = molecular target: Gal(b1-3)GlcNAc(b1-2)Man
In short: as §1

[9] = molecular target: Gal(b1-3)GlcNAc(b1-2)Man(a1-3)[Gal(b1-3)GlcNAc(b1-2)Man(a1-6)]Man(b1-4)GlcNAc(b1-4)GlcNAc
In short: as §1

[10] = molecular target: Gal(b1-3)GlcNAc(b1-2)Man(a1-3)[Gal(b1-3)GlcNAc(b1-2)Man(a1-6)]Man(b1-4)GlcNAc(b1-4)[Fuc(a1-6)]GlcNAc
In short: as §1

[11] = molecular target: Gal(b1-3)GlcNAc(b1-2)Man(a1-3)[GlcNAc(b1-4)][Gal(b1-3)GlcNAc(b1-2)Man(a1-6)]Man(b1-4)GlcNAc(b1-4)GlcNAc
In short: as §1

[12] = molecular target: Gal(b1-3)GlcNAc(b1-2)[Gal(b1-3)GlcNAc(b1-6)]Man(a1-6)[Gal(b1-3)GlcNAc(b1-2)Man(a1-3)]Man(b1-4)GlcNAc(b1-4)GlcNAc
In short: as §1

[13] = molecular target: Gal(b1-3)GlcNAc(b1-3)Gal(b1-3)GlcNAc
In short: as §1

[14] = molecular target: Gal(b1-3)GlcNAc(b1-3)Gal(b1-4)Glc
In short: as §1

[15] = molecular target: Gal(b1-3)GlcNAc(b1-3)Gal(b1-4)GlcNAc
In short: as §1

[16] = molecular target: Gal(b1-3)GlcNAc(b1-3)Gal(b1-4)GlcNAc(b1-2)Man(a1-3)[Gal(b1-3)GlcNAc(b1-3)Gal(b1-4)GlcNAc(b1-2)Man(a1-6)]Man(b1-4)GlcNAc(b1-4)GlcNAc
In short: as §1

[17] = molecular target: Gal(b1-3)GlcNAc(b1-3)Gal(b1-4)GlcNAc(b1-2)[Gal(b1-3)GlcNAc(b1-3)Gal(b1-4)GlcNAc(b1-6)]Man(a1-6)[Gal(b1-3)GlcNAc(b1-3)Gal(b1-4)GlcNAc(b1-2)Man(a1-3)]Man(b1-4)GlcNAc(b1-4)[Fuc(a1-6)]GlcNAc
In short: as §1

[18] = molecular target: Gal(b1-3)GlcNAc(b1-3)Gal(b1-4)GlcNAc(b1-3)Gal(b1-4)GlcNAc(b1-2)[Gal(b1-3)GlcNAc(b1-3)Gal(b1-4)GlcNAc(b1-3)Gal(b1-4)GlcNAc(b1-6)]Man(a1-6)[Gal(b1-3)GlcNAc(b1-3)Gal(b1-4)GlcNAc(b1-3)Gal(b1-4)GlcNAc(b1-2)Man(a1-3)]Man(b1-4)GlcNAc(b1-4)[Fuc(a1-6)]GlcNAc
In short: as §1

[19] = molecular target: Gal(b1-3)GlcNAc(b1-3)Gal(b1-4)GlcNAc(b1-6)[Gal(b1-3)GlcNAc(b1-3)]Gal(b1-4)Glc
In short: as §1

[20] = molecular target: Gal(b1-3)GlcNAc(b1-3)Gal(b1-4)[Fuc(a1-3)]GlcNAc
In short: as §1

[21] = molecular target: Gal(b1-3)GlcNAc(b1-3)Gal(b1-4)[Fuc(a1-3)]GlcNAc(b1-6)[Gal(b1-3)GlcNAc(b1-3)]Gal(b1-4)Glc
In short: as §1

[22] = molecular target: Gal(b1-3)GlcNAc(b1-3)GalNAc
In short: as §1

[23] = molecular target: Gal(b1-3)GlcNAc(b1-6)Gal(b1-4)GlcNAc
In short: as §1

[24] = molecular target: Gal(b1-3)GlcNAc(b1-6)GalNAc
In short: as §1

[25] = molecular target: Gal(b1-3)GlcNAc(b1-6)[Gal(b1-3)]GalNAc
In short: as §1

Gal(b1-3)GlcNAc6S = molecular target: Gal(b1-3)GlcNAc6S
In short: as §1

[26] = molecular target: Gal(b1-3)[Fuc(a1-4)]GlcNAc
In short: as §1

[27] = molecular target: Gal(b1-3)[Fuc(a1-4)]GlcNAc(b1-2)Man
In short: as §1

[28] = molecular target: Gal(b1-3)[Fuc(a1-4)]GlcNAc(b1-2)Man(a1-3)[Gal(b1-3)[Fuc(a1-4)]GlcNAc(b1-2)Man(a1-6)]Man(b1-4)GlcNAc(b1-4)[Fuc(a1-6)]GlcNAc
In short: as §1

[29] = molecular target: Gal(b1-3)[Fuc(a1-4)]GlcNAc(b1-3)Gal(b1-3)[Fuc(a1-4)]GlcNAc
In short: as §1

[30] = molecular target: Gal(b1-3)[Fuc(a1-4)]GlcNAc(b1-3)Gal(b1-4)GlcNAc
In short: as §1

[31] = molecular target: Gal(b1-3)[Fuc(a1-4)]GlcNAc(b1-3)Gal(b1-4)[Fuc(a1-3)]GlcNAc
In short: as §1

[32] = molecular target: Gal(b1-3)[Fuc(a1-4)]GlcNAc(b1-6)GalNAc
In short: as §1

[33] = molecular target: Gal(b1-3)[GlcNAc(b1-6)]GalNAc
In short: as §1

[34] = molecular target: Gal(b1-3)[Neu5Ac(a2-6)]GalNAc
In short: as §1

[35] = molecular target: Gal(b1-3)[Neu5Ac(a2-6)]GlcNAc(b1-4)Gal(b1-4)Glc
In short: as §1

B1: SJA (Sophora japonica) (protein)
chain: FLGLFNSGGYSSSYQIVAVEFDTYINEWDPKTRHIGIDINSINSTKTVTWGWENGEVAIVLISYKAATETLTVSLTYPSSQTSYILSAAVDLKSILPEWVRIGF
[1]
  glycan array binding signal (z-score): -0.074
Gal(a1-4)GlcNAc
  glycan array binding signal (z-score): -0.096
Gal(a1-6)Glc
  glycan array binding signal (z-score): -0.167
Gal(b1-2)Gal
  glycan array binding signal (z-score): -0.176
Gal(b1-3)Gal
  glycan array binding signal (z-score): -0.078
Gal(b1-3)Gal(b1-4)GlcNAc
  glycan array binding signal (z-score): -0.108
Gal(b1-3)GalNAc
  glycan array binding signal (z-score): -0.188
[2]
  glycan array binding signal (z-score): -0.383
[3]
  glycan array binding signal (z-score): -0.337
Gal(b1-3)GalNAc(b1-3)Gal
  glycan array binding signal (z-score): -0.219
[4]
  glycan array binding signal (z-score): -0.044
[5]
  glycan array binding signal (z-score): -0.008
[6]
  glycan array binding signal (z-score): -0.183
Gal(b1-3)GlcNAc
  glycan array binding signal (z-score): -0.187
[7]
  glycan array binding signal (z-score): -0.361
[8]
  glycan array binding signal (z-score): -0.076
Gal(b1-3)GlcNAc(b1-2)Man
  glycan array binding signal (z-score): -0.111
[9]
  glycan array binding signal (z-score): -0.024
[10]
  glycan array binding signal (z-score): -0.007
[11]
  glycan array binding signal (z-score): -0.265
[12]
  glycan array binding signal (z-score): -0.339
[13]
  glycan array binding signal (z-score): -0.114
[14]
  glycan array binding signal (z-score): -0.205
[15]
  glycan array binding signal (z-score): -0.21
[16]
  glycan array binding signal (z-score): -0.124
[17]
  glycan array binding signal (z-score): -0.135
[18]
  glycan array binding signal (z-score): 0.238
[19]
  glycan array binding signal (z-score): -0.198
[20]
  glycan array binding signal (z-score): -0.027
[21]
  glycan array binding signal (z-score): -0.154
[22]
  glycan array binding signal (z-score): -0.225
[23]
  glycan array binding signal (z-score): -0.272
[24]
  glycan array binding signal (z-score): -0.298
[25]
  glycan array binding signal (z-score): -0.253
Gal(b1-3)GlcNAc6S
  glycan array binding signal (z-score): -0.412
[26]
  glycan array binding signal (z-score): -0.178
[27]
  glycan array binding signal (z-score): -0.17
[28]
  glycan array binding signal (z-score): 0.39
[29]
  glycan array binding signal (z-score): -0.116
[30]
  glycan array binding signal (z-score): -0.167
[31]
  glycan array binding signal (z-score): -0.196
[32]
  glycan array binding signal (z-score): -0.221
[33]
  glycan array binding signal (z-score): -0.322
[34]
  glycan array binding signal (z-score): -0.205
[35]
  glycan array binding signal (z-score): -0.241
